{
  "source": "PubChem BioAssay AID504832",
  "about": "(National Center for Advancing Translational Sciences (NCATS), 2011)",
  "note": "In all, about 310,000 compounds went through this assay and about 18,000 (5.8%) were called active. Inconclusive results, whose numbers are uncertain, are shown with a selection of clear calls. Calls come from the whole dose curve; as a rule, active = well fitted inhibition curve with a large enough effect; inconclusive = small, poorly fitted or top-dose-only effect, or another doubt; inactive = no such curve, though single readings can be large or run the other way. No potency is given beside an inconclusive call; the fits are too rough. % is set by controls: 0 for no effect and ±100 for the full control effect; potency is the fitted concentration of half-maximal effect; tags give direction and shape of the fitted curve.",
  "data": [
    {"assay": "Primary qHTS for delayed death inhibitors of the malarial parasite plastid, 48 hour incubation", "conditions": "P. falciparum luciferase growth in erythrocytes; series mostly up to 28.7 µM; activity change, negative = inhibition: at the top concentration", "outline": "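Here the parasites carry a stable luciferase gene and grow inside erythrocytes in Albumax-based RPMI medium with compound for one erythrocytic cycle. Activity is scored as loss of luminescent signal.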", "values": [
      {"smiles": "COc1ccc2c(c1)c1nc3ccccc3nc1n2Cc1ccc(OC(C)C)c(OC)c1", "Potency": "active: 11.7 µM"},
      {"smiles": "CCc1noc(C)c1C(=O)N1CCCSC1=Nc1ccccc1", "Potency": "inconclusive [inhibitor, single point]"},
      {"smiles": "C/C(=N/NC(=O)Cc1cc(=O)[nH][nH]1)c1ccc([N+](=O)[O-])cc1", "activity change, negative = inhibition": "inactive: 14.3%"},
      {"smiles": "COc1ccc(C(=O)NC2CCCc3c2cnn3-c2ccccc2F)o1", "note": "(stereo unspecified)", "Potency": "inconclusive [inhibitor, single point]"},
      {"smiles": "O=S(Cc1cc(Oc2ccccc2)nc(-c2ccccc2)n1)c1ccccc1", "note": "(stereo unspecified)", "Potency": "inconclusive [inhibitor, single point]"},
      {"smiles": "c1ccc(-c2cc3n(c2)CCc2ccccc2-3)cc1", "Potency": "inconclusive [inhibitor, single point]"},
      {"smiles": "N#Cc1ccc(CN2C(=O)NC3(CCCCCC3)C2=O)cc1", "activity change, negative = inhibition": "inactive: 14.3%"},
      {"smiles": "CCN(CC)CCn1c2ccccc2c2cnc(N)c(C#N)c21", "Potency": "active: 2.62 µM"},
      {"smiles": "Cc1ccccc1NC(=O)CC(=O)Nc1ccccc1C", "activity change, negative = inhibition": "inactive: 24.6%"},
      {"smiles": "CCCC(C)c1nnc(NC(=O)CS(=O)(=O)Cc2ccccc2)s1", "note": "(stereo unspecified)", "Potency": "inconclusive [inhibitor, full curve, poor fit]"},
      {"smiles": "COc1ccc(CCNc2ccc(C)cc2)cc1", "activity change, negative = inhibition": "inactive: 25.3%"},
      {"smiles": "O=C(C1=NOC(CNc2ncc(C(F)(F)F)cc2Cl)C1)N1CCOCC1", "note": "(stereo unspecified)", "activity change, negative = inhibition": "inactive: 35.6%"},
      {"smiles": "COc1cccc(NC(=O)Cn2c(=O)n(-c3ccccc3)c(=O)c3oc4ccccc4c32)c1", "activity change, negative = inhibition": "inactive: -2.97%"},
      {"smiles": "CN(C)CCNC(=O)Cn1nc(-c2ccc(Cl)cc2)ccc1=O", "Potency": "inconclusive [inhibitor, single point]"},
      {"smiles": "COc1ccc(NC(=O)CN2CCN(C3c4ccccc4-c4ccccc43)CC2)cc1", "Potency": "inconclusive [inhibitor, partial curve, poor fit]"},
      {"smiles": "Cc1csc2ncc(C(=O)N3CCCc4ccccc43)c(=O)n12", "activity change, negative = inhibition": "inactive: -1.76%"},
      {"smiles": "Cc1ccc(NC(=O)CCc2c[nH]c3ccccc23)nc1", "Potency": "inconclusive [inhibitor, full curve, poor fit]"},
      {"smiles": "CN1CC=C2C(C#N)=C(N)C(C#N)(C#N)C(c3ccsc3)C2C1", "note": "(stereo unspecified)", "activity change, negative = inhibition": "inactive: -26.4%"},
      {"smiles": "Cc1cccn2c(=O)c3cc(C(=O)NCCc4ccccc4)c(=N)n(Cc4ccco4)c3nc12", "Potency": "active: 1.47 µM"},
      {"smiles": "O=C(CCC(=O)N1CCN(S(=O)(=O)c2ccccc2)CC1)NC1CCCc2ccccc21", "note": "(stereo unspecified)", "Potency": "inconclusive [inhibitor, partial curve, poor fit]"},
      {"smiles": "CCc1ccc(CN(C)CC(=O)Nc2ccc(S(=O)(=O)N3CCOCC3)cc2)cc1", "Potency": "active: 10.4 µM"},
      {"smiles": "O=C(Nc1cccc(S(=O)(=O)N2CCOCC2)c1)c1cccc(S(=O)(=O)N2CCCC2)c1", "Potency": "inconclusive [inhibitor, single point]"},
      {"smiles": "CC(NCc1cc(Br)ccc1OCC(=O)NCc1ccccc1)c1ccccc1", "note": "(stereo unspecified)", "Potency": "inconclusive [inhibitor, single point]"},
      {"smiles": "CCn1ncc(C2=NOC(C(=O)Nc3ccc(C)cc3)C2)c1C", "note": "(stereo unspecified)", "activity change, negative = inhibition": "inactive: 8.76%"},
      {"smiles": "COc1cc(CN=C(C)c2c(O)n(C3CCCCC3)c(=O)[nH]c2=O)cc(OC)c1", "Potency": "inconclusive [inhibitor, single point]"},
      {"smiles": "CC1(O)CC(c2ccc(Cl)cc2)=NN1C(=O)c1ccc([N+](=O)[O-])cc1", "note": "(stereo unspecified)", "Potency": "inconclusive [inhibitor, single point]"},
      {"smiles": "CCOc1ccccc1NC(=S)NC1CC2CCC1C2", "note": "(stereo unspecified)", "Potency": "inconclusive [inhibitor, full curve, poor fit]"},
      {"smiles": "O=C(Nc1ccc(F)cc1)/C(=C1/CCCCCN1)[N+](=O)[O-]", "activity change, negative = inhibition": "inactive: 4.58%"},
      {"smiles": "O=C(NCCCN1CCCCC1)C1CCN(S(=O)(=O)N2CCC3(CC2)OCCO3)CC1", "activity change, negative = inhibition": "inactive: 35%"},
      {"smiles": "CC(C)CNC(=O)NC(=O)COC(=O)Cn1cnc2ccccc2c1=O", "activity change, negative = inhibition": "inactive: -27%"},
      {"smiles": "C/C(=N\\Nc1nc(Nc2ccccc2)nc(N2CCOCC2)n1)c1cccs1", "Potency": "inconclusive [inhibitor, single point]"},
      {"smiles": "Cc1ccc2c(-c3csc(N)n3)c[nH]c2c1", "Potency": "inconclusive [inhibitor, single point]"},
      {"smiles": "COc1cccc(CN(C)CC(=O)Nc2ccccc2C(=O)Nc2ccccc2)c1", "Potency": "inconclusive [inhibitor, single point]"},
      {"smiles": "CN1C(=O)C2(C(C#N)=C(N)N(c3cc(Cl)cc(Cl)c3)C3=C2C(=O)CC(C)(C)C3)c2ccccc21", "note": "(stereo unspecified)", "Potency": "inconclusive [inhibitor, single point]"},
      {"smiles": "Cc1nn(-c2ccccc2)c(Cl)c1/C=N/Nc1nncc(=O)[nH]1", "activity change, negative = inhibition": "inactive: 6.7%"},
      {"smiles": "CCO[C@@H]1OC(C(=O)Nc2ccccc2)=C[C@H](c2coc3ccccc3c2=O)[C@H]1CCCO", "Potency": "inconclusive [inhibitor, full curve, poor fit]"},
      {"smiles": "CCCCOC(=O)Nc1cc(OC)c(Cl)cc1OC", "Potency": "inconclusive [inhibitor, full curve, poor fit]"},
      {"smiles": "CCOC(=O)c1c(-c2cccs2)csc1NC(=O)CN1CCOCC1", "Potency": "inconclusive [inhibitor, single point]"},
      {"smiles": "COc1ccccc1C(CCNCc1ccc(N(C)C)cc1)c1ccc(OC(C)C)cc1", "note": "(stereo unspecified)", "Potency": "active: 8.28 µM"},
      {"smiles": "CCC(C)(C)C1CCC2(CC1)NC(CO)(CO)CO2", "note": "(stereo unspecified)", "activity change, negative = inhibition": "inactive: -18.4%"},
      {"smiles": "O=C(NCCc1ccc(F)cc1)C(=O)NCC1CCCN1S(=O)(=O)c1ccccc1", "note": "(stereo unspecified)", "Potency": "inconclusive [inhibitor, partial curve, poor fit]"},
      {"smiles": "Cc1cc(NC(=O)Cn2nnc(-c3ccccc3NC(=O)c3ccccc3F)n2)no1", "Potency": "inconclusive [inhibitor, single point]"},
      {"smiles": "CCOc1ccc2ncc(C(=O)c3ccc(OC)cc3)c(N3CCN(CC)CC3)c2c1", "Potency": "inconclusive [inhibitor, partial curve]"},
      {"smiles": "Cc1cccc(NC(=O)COC(=O)c2ccc3c(c2)OCO3)c1C", "activity change, negative = inhibition": "inactive: 0%"},
      {"smiles": "Cc1sc2nc(C3CC3)nc(SCC(=O)N3CC(=O)Nc4ccccc43)c2c1C", "Potency": "inconclusive [inhibitor, partial curve, poor fit]"},
      {"smiles": "NC(=O)C1CCN(CC(=O)Nc2ccc(S(=O)(=O)N3CCOCC3)cc2)CC1", "activity change, negative = inhibition": "inactive: -5.46%"},
      {"smiles": "O=C(Nc1ccc(S(=O)(=O)Nc2ncccn2)cc1)C12CC3CC(CC(C3)C1)C2", "activity change, negative = inhibition": "inactive: 5.34%"},
      {"smiles": "Cc1cccc(NC(=S)NCCc2ccccc2)n1", "Potency": "inconclusive [inhibitor, partial curve, poor fit]"},
      {"smiles": "O=C(NCCCOc1cccc(CN2CCCCC2)c1)c1ccc(Cl)c(Cl)c1", "Potency": "inconclusive [inhibitor, partial curve]"},
      {"smiles": "CCOc1cc(NC(=O)c2cnccn2)c(OCC)cc1NC(=O)c1ccc(OC)cc1", "Potency": "inconclusive [inhibitor, full curve, poor fit]"},
      {"smiles": "Cc1nc2ccc(NC(=S)NC(C)C)cc2nc1C", "activity change, negative = inhibition": "inactive: 33.2%"},
      {"smiles": "CCOc1ccc(CCNC(=O)COC(=O)Cn2nc(C)c([N+](=O)[O-])c2C)cc1OCC", "activity change, negative = inhibition": "inactive: -0.329%"},
      {"smiles": "CC(Sc1nc(-c2ccccc2)cc(C(F)(F)F)n1)C(=O)N1CCOCC1", "note": "(stereo unspecified)", "Potency": "inconclusive [inhibitor, partial curve]"},
      {"smiles": "COc1ccc(C(=O)Nn2c(C)ccc2C)cc1OC", "Potency": "inconclusive [inhibitor, partial curve, poor fit]"},
      {"smiles": "CN(c1ccccc1)S(=O)(=O)c1cccc(C(=O)Nc2ccc(N3CCOCC3)cc2)c1", "Potency": "inconclusive [inhibitor, single point]"},
      {"smiles": "O=C(Nc1cccc(Oc2c(F)c(F)c(F)c(F)c2F)c1)N1C[C@@H]2C[C@@H](C1)c1cccc(=O)n1C2", "Potency": "inconclusive [inhibitor, single point]"},
      {"smiles": "Nc1nc(CN2CCN(c3ccccc3F)CC2)nc(Nc2ccccc2)n1", "Potency": "inconclusive [inhibitor, single point]"},
      {"smiles": "O=C(Nc1cccc2ccccc12)C(=O)C1C(=O)Nc2ccccc21", "note": "(stereo unspecified)", "Potency": "inconclusive [inhibitor, single point]"},
      {"smiles": "Cc1ccc2cc(C(c3nnnn3C3CCCC3)N3CCOCC3)c(=O)[nH]c2c1C", "note": "(stereo unspecified)", "Potency": "inconclusive [inhibitor, full curve, poor fit]"},
      {"smiles": "COc1ccc(-c2cc(C(=O)NCCCN3CCCC3=O)c3ccccc3n2)cc1OC", "Potency": "inconclusive [inhibitor, single point]"},
      {"smiles": "COCc1cc(C)nc(NC2CCCCC2)c1C#N", "Potency": "active: 3.7 µM"},
      {"smiles": "COC(=O)c1ccccc1NC(=O)n1cc(C)cn1", "activity change, negative = inhibition": "inactive: -4.94%"},
      {"smiles": "O=C(COC(=O)Cc1ccc(S(=O)(=O)N2CCOCC2)s1)NCc1ccccc1", "activity change, negative = inhibition": "inactive: -3.48%"},
      {"smiles": "COc1cccc(NC(=O)C2CCC(CNS(=O)(=O)c3cccc4cccnc34)CC2)c1", "note": "(stereo unspecified)", "Potency": "inconclusive [inhibitor, partial curve, poor fit]"},
      {"smiles": "OCCN(CCO)c1ncnc2c1sc1nc(N3CCOCC3)c3c(c12)CCCC3", "Potency": "inconclusive [inhibitor, single point]"},
      {"smiles": "O=C(OCn1ncc(Br)c(Br)c1=O)c1c(F)cccc1F", "Potency": "inconclusive [inhibitor, partial curve, poor fit]"},
      {"smiles": "COc1cccc(OC)c1C(=O)Nc1cc(C)nn1-c1nc2ccccc2[nH]1", "Potency": "active: 9.28 µM"},
      {"smiles": "COC(=O)C1=C(O)/C(=C\\c2ccc(OCC(=O)Nc3ccc(OC)cc3)cc2)N=C1C", "Potency": "inconclusive [inhibitor, single point]"},
      {"smiles": "CS(=O)(=O)Nc1ccccc1N=C(c1ccccc1)c1ccccc1", "activity change, negative = inhibition": "inactive: -17.5%"},
      {"smiles": "COc1cc(/C=N/n2cc(-c3ccccc3)[nH]c2=S)cc(OC)c1O", "Potency": "active: 11.7 µM"},
      {"smiles": "FC(F)(F)c1ccc(N2CCN(c3cc(-c4ccccc4)nc4ncnn34)CC2)nc1", "Potency": "inconclusive [inhibitor, full curve, poor fit]"}
    ]}
  ]
}
